Results reported in the supplement of paper PMC11417369.
The other results are listed elsewhere or left out.

system: PfSIP2 AP2 domain 1 (GST-tagged); test: gcPBM binding intensity (ln(normalized median fluorescence intensity)); higher = stronger DNA binding
Summary of the method: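 An Agilent 4 × 180k array carrying primer-extended double-stranded 36-bp intergenic genomic probes and negative controls received GST-tagged P. falciparum DNA-binding domains expressed in E. coli, about 25 μg on average, for 1 h. The binding buffer contained 1× PBS, 1% milk, 0.2 mg/ml BSA, 0.5% salmon testes DNA and 0.03% Triton X-100. Binding intensity is the top Masliner-normalised natural-log median intensity across replicate spots of either probe orientation, read after Alexa488 anti-GST antibody staining and a 488 nm scan.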

In order of rising “gcPBM binding intensity (ln)” value:
1. TTTCTTTTCTTCTCTATTTTTTTTTCACGGCATTAT [TGCATGCA_negctrl_site484]  6.76
2. TCTTTTCAATTTTATATGATCTTAATATTTTATGAA [GTGCAC_negctrl_site294]  6.76
3. CATAATATATTTTATGCATGCAAAGCAACCTTTTGA [TGCATGCA_site715]  6.76
4. CAAATTTTTTATTAAACACACAAACATATATTTATA [CACACA_site6992]  6.77
5. AATAAATTATATATCACACATATATATTTATATTTA [CACACA_site5964]  6.79
6. TATTTATTTAAAGGCACACATATTTTTATACTTTCT [CACACA_site3163]  6.86
7. TTTGTAAAATAATATCTTTCATGTCCTTACTAATTA [GTGCAC_negctrl_site145]  6.87
8. AAAAAAGAAAAGAAATCATGAAAGAATCAAATAAAG [CACACA_negctrl_site1771]  6.88
9. ATTTTAAATTAAATTACACACTACGAATAATATATT [CACACA_site4016]  6.89
10. ACATATAAAATATTCACACACAAGTTATAGTTCTCG [CACACA_site3626]  6.91
11. TATTAATTATTTTACTGTACTAATAATACTTTTATT [XGTACX_site2179]  6.92
12. AATTTTTTTTTTTTTTTTTCTTTTGTAATAAACCAT [XGTACX_negctrl_site334]  6.92
13. TTTATTTTATCTAAAAGTACTTAAATTAGTGTATTT [XGTACX_site5696]  6.93
14. TTACGAAAAAACAAGAGTACATGATGTTATAAAATA [XGTACX_site1412]  6.93
15. TATTAACAAAATTTTTAACACACAAAAAAAAAAAAA [CACACA_site8542]  6.94
16. TTTTTATATATATTCTCACACACTTTTTATTTTAAC [CACACA_site657]  6.97
17. ATTTTTTACATACTCAAATGTTTTAATTTTTTATAT [CACACA_negctrl_site1213]  6.99
18. TAAGGAAAAAATTATAGTACATAATAAATGTATATA [XGTACX_site8328]  7
19. ATATTTCTGTCAAGCACACATAATATTAATATATGT [CACACA_site318]  7.02
20. TTTTTTTTTTTTTACACACACAAAATATTATAGGTA [CACACA_site7209]  7.04
21. TAATGTATAATTAATCGTACATTAGATTGTTGTGTT [XGTACX_site52]  7.04
22. AATATAAGAAAAATAACACACACATAAACATATATA [CACACA_site8899]  7.05
23. AAAAAAAAAAAACACACACACACACCGAAATATATA [CACACA_site4261]  7.12
24. TTCCAACCATAGTATTCACACATTGTTTTATTCCAT [CACACA_site4927]  7.12
25. ATTCATATGAAACACACACACACACCCATAAAAAAA [CACACA_site3246]  7.13
26. TTCAGCATAAACACTTGTACATATATACTAAAAATT [XGTACX_site7272]  7.13
27. CGTTGTAGGGAATGTAGTACAGTTATTATTTTATTA [XGTACX_site2429]  7.14
28. ATTATATATATATATAAACACACATAAATATAAATA [CACACA_site8291]  7.22
29. TGTTTTTTATTTAATTGTACGAATTAAAAAAAATAA [XGTACX_site3009]  7.23
30. TTTTTACTAATAAGATGTACATATATCCTAAGCATA [XGTACX_site251]  7.23
31. TTTTTTGTTATATTTGTGCGCAAAAATTGCTGCTTG  7.25
32. AAAATTTATGTAAAATGTACATACATAAATAAAGAT [XGTACX_site4339]  7.37
33. ATTATGTGAGGTAACTAAATATGTACGTAACGAAGA [CACACA_negctrl_site1400]  7.39
34. ATTATATTTTTAAGTACACACATATAAATAAATATA [CACACA_site7682]  7.43
35. TTTCGTAAACAAATTTGTACGTACAAATTTATAAAT [XGTACX_site8175]  7.43
36. ATAAATATATTTCACGCACACACACCCCAAATAAAT [CACACA_site9272]  7.45
37. TCATACATTTTCAGCCTGCACTTATATTTAATAATA [GTGCAC_site9863]  7.6
38. TATATATATAAATACACACACACACCGATATATATA [CACACA_site5408]  7.96
39. ACATTAAAAAATTGTTTGCACTATATAAAATATTAA [GTGCAC_site9728]  8.2
40. ATATATATATATTATACACACGCCGAAAAAATAAAA [CACACA_site1551]  8.28
41. ATTTTGTTATTATATATATATATATATATATATATA [XGTACX_negctrl_site590]  9.26
42. ATATATATATATGTGTGTACTTAAAAATATAATGCA [XGTACX_site7753]  9.44
43. AATATTCATATGCAGGTGCATTAATTTTTATTAATT  10.4
44. ATTTCCCCAACGTGGGTGCATATATTTATGTGTGAA [GTGCAC_site9439]  11.1
